PubChem BioAssay AID485294 (National Center for Advancing Translational Sciences (NCATS), 2010)
Hit rate of the full screen: of about 370,000 compounds, about 150 (0.041%) were called active. Inconclusive results, whose numbers are uncertain, are shown with a selection of clear calls. The call rests on the fitted dose curve; in most records, active means well fitted inhibition curve with a large enough effect; inconclusive means small, poorly fitted or top-dose-only effect; inactive means flat fitted curve, though single readings scatter. Potencies of inconclusive entries are left out as doubtful fits.

Each compound was assayed against Beta-lactamase (Escherichia coli (strain K12)) (UniProt P00811) (assay: qHTS Inhibitors of AmpC Beta-Lactamase (assay with detergent)). Settings: AmpC hydrolysis of nitrocefin, absorbance 480 nm, 0.01% Triton; series mostly up to 114 µM.
UniProt P00811, sequence (P00811 whole entry, looked up): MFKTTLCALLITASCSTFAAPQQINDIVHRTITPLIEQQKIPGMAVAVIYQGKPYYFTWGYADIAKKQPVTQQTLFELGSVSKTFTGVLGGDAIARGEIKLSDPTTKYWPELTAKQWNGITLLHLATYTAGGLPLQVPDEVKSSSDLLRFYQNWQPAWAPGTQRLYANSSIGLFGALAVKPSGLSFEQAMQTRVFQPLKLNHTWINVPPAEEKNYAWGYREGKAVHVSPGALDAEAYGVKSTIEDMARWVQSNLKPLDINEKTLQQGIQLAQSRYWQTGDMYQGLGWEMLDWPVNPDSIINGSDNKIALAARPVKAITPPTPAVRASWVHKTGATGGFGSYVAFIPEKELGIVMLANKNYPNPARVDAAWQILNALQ
Summary of the method: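 20 mM phosphate pH 7.0 + 0.01% (detergent screen) or 0.0001% Triton X-100; 5.3 nM AmpC reagent; cpd preinc 15 min RT; nitrocefin (800 uM stock) to start; A480 q20 s × 4 min; Activity was normalised to no-enzyme and no-compound control wells.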
Further: nearly all actives have a fitted effect of over 25% in size.
Potency means the concentration at half of the fitted maximal effect; tags describe the fitted curve by direction and shape.

SMILES	Potency
COC(=O)c1ccc(OCCOCCOc2cccc3ccc(C)nc23)cc1	inconclusive [inhibitor, partial curve, poor fit]
Cc1cccn2c(=O)c3cc(C(=O)NCc4ccccc4Cl)sc3nc12	inactive
CCN1C(=NCCOC)N[C@@H](c2cccs2)C(C(=O)OC)=C1C	inconclusive [inhibitor, partial curve, poor fit]
Cc1ccc(C(=O)NNC(=O)Cc2ccccc2)cc1	inconclusive [inhibitor, partial curve, poor fit]
COc1ccc(-n2c(SC(C)C(=O)Nc3ccc(NC(C)=O)cc3)nc3ccccc3c2=O)cc1OC (stereo unspecified)	inconclusive [inhibitor, partial curve, poor fit]
CC1=C(C(=O)OCc2ccc3c(c2)OCO3)C(c2ccc(O)c([N+](=O)[O-])c2)NC(=O)N1 (stereo unspecified)	inactive
CC(NC(=O)Cn1c(-c2cccs2)cc2cc(F)ccc21)c1ccccc1 (stereo unspecified)	inactive
Cn1c(=O)[nH]c(=O)c2c1nc(SCCN1CCCCC1)n2Cc1ccccc1	inconclusive [inhibitor, single point]
Cc1ccc(N(Cc2ccccc2)C(=O)c2ccc(S(=O)(=O)N3CCOCC3)cc2)cc1	inconclusive [inhibitor, partial curve, poor fit]
Cc1ccc(C(=O)OCC(=O)NCCN2C(=O)CSC2=O)cc1	inconclusive [inhibitor, full curve, poor fit]
COc1ccc(S(=O)(=O)N2CCCN(CCC(=O)Nc3cccc(C(F)(F)F)c3)CC2)cc1	inactive
CCc1ccc(NC(=O)CSc2nc(=O)n(Cc3ccco3)c3c2CCC3)cc1	inactive
O=C(CCC(=O)Nc1ccccc1)NNC(=O)C(c1ccccc1)c1ccccc1	inconclusive [inhibitor, partial curve, poor fit]
N/C(=N\OC(=O)c1cccs1)c1ccccc1	inconclusive [inhibitor, partial curve, poor fit]
Cc1cc(C)n(CCOc2ccc(Cl)cc2Cl)n1	inconclusive [inhibitor, partial curve, poor fit]
COc1ccc(S(=O)(=O)NCCN2CCOCC2)cc1[N+](=O)[O-]	inconclusive [inhibitor, partial curve]
Cc1ccc(S(=O)(=O)NCc2ccc(C(=O)N3CCN(c4ccc([N+](=O)[O-])cc4)CC3)cc2)cc1	inconclusive [inhibitor, full curve, poor fit]
CCN(CC)S(=O)(=O)c1cc(C(=O)n2cccn2)c(Cl)cc1Cl	inactive
O=C(CCc1ccc(O)cc1)c1c(O)cc(O)cc1O	inactive
CC(=O)SCCC(=O)Nc1ccccc1	inconclusive [inhibitor, full curve, poor fit]
COc1ccc(NC(=O)C(C)SCc2ccccc2)cc1OC (stereo unspecified)	inactive
O=C(CSc1nc(=O)n(Cc2ccco2)c2c1CCC2)NCc1ccc(F)cc1	inactive

SMILES	Potency
Cc1nn(Cc2c(F)cccc2Cl)c(C)c1NC(=O)C1CC1	inconclusive [inhibitor, full curve, poor fit]
Cc1c(C(=O)NCCCN2CCOCC2)sc2nc(-c3ccc(F)cc3)cn12	inactive
CC1=C(C(=O)Nc2ccccc2C)C(c2ccccn2)n2nc(SCc3ccccc3F)nc2N1 (stereo unspecified)	inactive
COc1ccccc1CNC(=O)c1cc2c(C)nn(Cc3ccc(F)cc3)c2s1	inconclusive [inhibitor, full curve, poor fit]
COc1ccccc1NS(=O)(=O)c1cccc(NC(=O)c2nc3nc(C)cc(C)n3n2)c1	inconclusive [inhibitor, full curve, poor fit]
Cc1ccc(C)c(NC(=O)N2CCCCCC2)c1	inconclusive [inhibitor, full curve, poor fit]
COc1ccc(Cl)cc1NC(=O)c1nn(C)c2c1CS(=O)(=O)c1ccccc1-2	inactive
CCCCN(C(=O)CCCc1nc2ccccc2s1)c1c(N)n(CCCC)c(=O)[nH]c1=O	inconclusive [inhibitor, single point]
COc1ccc(NC(=O)CCc2nnc3ccc(N4CCC(C)CC4)nn23)cc1	inconclusive [inhibitor, full curve, poor fit]
COc1ccc(C(c2nnnn2Cc2ccccc2)N2CCN(C(=O)c3ccco3)CC2)cc1OC (stereo unspecified)	inconclusive [inhibitor, partial curve, poor fit]
O=S(=O)(c1ccc(Br)cc1)c1nnn2c1nc(NCc1cccs1)c1sccc12	inactive
O=C(OCC(=O)N1CCCCCC1)c1ccc(F)cc1F	inconclusive [inhibitor, partial curve, poor fit]
CC(=O)Nc1ccc(NC(=O)C2CCN(C(=O)NC3CCCCC3)CC2)cc1	inactive
O=C1C2C3C=CC(C3)C2C(=O)N1CN(Cc1ccccc1)CN1C(=O)C2C3C=CC(C3)C2C1=O (stereo unspecified)	inconclusive [inhibitor, partial curve, poor fit]
O=C1c2sc3nc4n(c(=O)c3c2CCC1Br)CCCCC4 (stereo unspecified)	inactive
O=C(c1ccccc1F)N1CCN(S(=O)(=O)c2ccc3c(c2)OCCO3)CC1	inconclusive [inhibitor, full curve, poor fit]
Cc1ccccc1OCc1nc(-c2ccc(Br)o2)no1	inconclusive [inhibitor, full curve, poor fit]
Cc1c[nH]c2ccccc12	inconclusive [inhibitor, full curve, poor fit]
CCOc1ccc(N(CC(=O)NC2CCCCCC2)S(=O)(=O)c2c(C)noc2C)cc1	inconclusive [inhibitor, full curve, poor fit]
CN1C(=O)/C(=C2/C=Cc3ccccc3N2CCCS(=O)(=O)O)SC1=S	inconclusive [inhibitor, single point]
COC(=O)c1c(NC(=O)CC2SC(N)=NC2=O)sc2c1CCC(C)C2 (stereo unspecified)	inconclusive [inhibitor, partial curve, poor fit]
Cc1ccccc1NC(=O)Cn1c([N+](=O)[O-])cnc1C	inconclusive [inhibitor, partial curve, poor fit]

SMILES	Potency
CC(O)c1nc2ccccc2n1Cc1nnc(-c2ccc(Cl)cc2)o1 (stereo unspecified)	inconclusive [inhibitor, full curve]
Cc1ccc(-n2c3c(cc(C(=O)NCc4ccco4)c2=O)C(=O)CC(C)(C)C3)cc1	inactive
CC(=O)Oc1cccc(C(=O)Nc2ccccc2C(=O)N2CCCC2)c1	inconclusive [inhibitor, full curve]
CCn1c(NCc2cccc(Cl)c2)nc2ccccc21	inactive
O=C(c1ccco1)N1CCN(c2ccc(S(=O)(=O)N3CCCC3)cc2)CC1	inconclusive [inhibitor, partial curve]
NCC(O)c1cc(O)c(O)cc1F (stereo unspecified)	inconclusive [inhibitor, full curve]
COc1ccc(OC)c(NC(=O)CC2SC(=Nc3ccc(F)cc3)N(CCC3=CCCCC3)C2=O)c1 (stereo unspecified)	inconclusive [inhibitor, full curve, poor fit]
Cc1cc(C)c(C(=O)Nc2ccc(S(=O)(=O)Nc3onc(C)c3C)cc2)c(C)c1	inconclusive [inhibitor, full curve, poor fit]
CCOC(=O)N1CCN(S(=O)(=O)c2ccc(F)c(C(=O)Nc3ccc(C)c(Cl)c3)c2)CC1	inconclusive [inhibitor, partial curve, poor fit]
Cc1c(Cl)cccc1NC(=O)CN1C(=O)CCn2nc(-c3cccn3C)cc21	inactive
COC(=O)c1ccc(NC(=O)CN2CCCC2)cc1	inconclusive [inhibitor, partial curve, poor fit]
Cc1cc(C)n2nc(C(=O)OCC(=O)N(C)CC(=O)Nc3ccccc3Cl)nc2n1	inconclusive [inhibitor, full curve, poor fit]
Nn1c(COc2ccccc2)nc2ccccc2c1=O	inactive
Cc1ccc(S(=O)(=O)N2CCC(C(=O)N[C@@H](C)C(=O)NCc3ccccc3)CC2)cc1	inconclusive [inhibitor, full curve, poor fit]
Cc1cc(C)c(OCC(=O)OCCNC(=O)c2cccnc2)c(C)c1	inconclusive [inhibitor, full curve, poor fit]
Cc1cc(C)c2c(-n3cccc3)c(C(=O)NCCc3ccccc3)sc2n1	inactive
COC(=O)c1ccccc1NC(=O)Nc1nnc(N2CCCCC2C)s1 (stereo unspecified)	inconclusive [inhibitor, partial curve, poor fit]
COc1ccc(CNC(=O)C2CCN(c3nccs3)CC2)cc1	inconclusive [inhibitor, full curve, poor fit]
Cc1c(CNC(=O)c2nn3c(c2Cl)NC(c2ccccc2)CC3C(F)(F)F)cnn1C (stereo unspecified)	inconclusive [inhibitor, full curve, poor fit]
CCOC(=O)c1c(CSc2ccsc2)n(C)c2cc(Br)c(O)c(CN(C)C)c12	inactive
CC(C)n1ncc2c(C(=O)Nc3ccc(S(N)(=O)=O)cc3)cc(C3CC3)nc21	inactive
COC(=O)C1=C(C)NC2=C(C(=O)c3ccccc32)C1c1cccc(OC)c1 (stereo unspecified)	inactive
